Target: transmembrane form of IgE (mIgE) on U266 cells (human, UniProt P01854 1-546)
Test: cell-based or functional assay

Chain of UniProt P01854 (P01854 whole entry): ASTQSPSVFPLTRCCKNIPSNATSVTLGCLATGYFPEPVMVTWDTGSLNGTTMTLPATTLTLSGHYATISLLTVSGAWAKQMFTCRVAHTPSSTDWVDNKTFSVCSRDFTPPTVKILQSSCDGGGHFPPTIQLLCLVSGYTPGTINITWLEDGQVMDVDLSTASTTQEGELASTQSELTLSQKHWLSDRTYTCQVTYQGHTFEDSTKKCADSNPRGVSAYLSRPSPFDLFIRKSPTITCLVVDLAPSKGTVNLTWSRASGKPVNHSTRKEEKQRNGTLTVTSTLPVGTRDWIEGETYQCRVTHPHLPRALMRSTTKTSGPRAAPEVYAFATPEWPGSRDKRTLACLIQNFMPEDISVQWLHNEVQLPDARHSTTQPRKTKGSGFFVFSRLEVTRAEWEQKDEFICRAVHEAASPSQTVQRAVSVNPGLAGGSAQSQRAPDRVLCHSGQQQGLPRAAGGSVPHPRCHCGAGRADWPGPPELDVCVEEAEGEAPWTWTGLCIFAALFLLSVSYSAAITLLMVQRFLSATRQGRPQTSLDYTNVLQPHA

B1: M2 CAR (FcεRIα extracellular domain K117D+D159A fused to CD3ζ) (receptor)
chain: VPQKPKVSLNPPWNRIFKGENVTLTCNGNNFFEVSSTKWFHNGSLSEETNSSLNIVNAKFEDSGEYKCQHQQVNESEPVYLEVFSDWLLLQASAEVVMEGQPLFLRCHGWRNWDVYDVIYYKDGEALKYWYENHNISITNATVEDSGTYYCTGKVWQLAYESEPLNITVIKAPREKYWLQGGSGG[about 150 residues not printed]
- killing of U266-luci cells by M2 CAR+ human CD8+ T cells (luciferase, specific lysis): > 3 fold

— patent US20180193452A1 (NEMOURS FOUNDATION, published 2018)
